The campaign covered roughly 48,000 compounds. About 450 (0.94%) were called active. Not shown: some 19% with an inconclusive outcome. Calls follow the shape of the dose curve; as a rule, active = well fitted inhibition curve with a large enough effect; inconclusive = small, poorly fitted or top-dose-only effect; inactive = no such curve, though single readings can be large or run the other way. The list shows a part of the results.
Assay: Primary qHTS for Identification of Small Molecule Inhibitors of Huntingtin Promoter Activity; also: nearly all actives have a fitted effect of over 50% in size
Details: HEK293 HTT promoter firefly luciferase reporter (activity 0% = vehicle and -100% = no light), 24 h; series mostly up to 57.5 µM; activity change, negative = inhibition: at the top concentration
Outline: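 HEK293 cells carrying firefly luciferase reporters were seeded at 2,500 per well in Opti-MEM and cultured for 24 h. They were then treated with compounds at up to 57.5 uM final for 24 h at 37 degrees C before Dual-Glo luminescence readout.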

Activity change, negative = inhibition, inactive:
NS(=O)(=O)c1ccc(NC2=CC(=O)c3ccccc3C2=O)cc1 -10.2%
Cn1c(=O)c2c(-c3ccc(Br)cc3)n(CCc3ccccc3)cc2n(C)c1=O -4.11%
COc1ccc(CN2CCCN(CC(=O)Nc3ccc4c(c3)OCCO4)S2(=O)=O)cc1 -2.75%
CCC(=O)Nc1ccc(O)cc1 -5.41%
Cc1ccc(C(=O)N2CCC(C(N)=O)CC2)cc1NC(=O)c1nsc2ccccc12 -0.0325%
COc1ccccc1CNC(=O)CCCn1c(=O)c2ccccc2n(Cc2ccc(C)cc2)c1=O 0.0419%
CN1CCN(C2Cc3ccccc3Sc3ccc(Cl)cc32)CC1 (stereo not given) -22.4%
COc1ccc(N(CC(=O)NCCc2ccc(Cl)cc2)S(=O)(=O)c2c(C)nn(C)c2C)cc1 -23.6%
CCOC(=O)C1CCN(C(=O)c2nn(-c3ccc(OC)cc3)c(=O)c3c2c2ccccc2n3C)CC1 -11%
Cc1ccc(Sc2ccc(N3CCCC(C(=O)Nc4ccc(F)cc4F)C3)nn2)cc1 (stereo not given) -16.2%
Cc1ccc(-c2noc(-c3nnn(CC(=O)Nc4cc(Cl)ccc4C)c3N)n2)cc1 4.14%
Cc1nn(C)c2c1c(C(F)(F)F)cc(=O)n2CC(=O)N1CCC(C)CC1 -3.54%
CC1CCN(S(=O)(=O)c2cc(C(=O)N3CCN(c4ccccc4F)CC3)n(C)c2)CC1 -30.6%
CCC1CN(C(=O)C2CCN(S(=O)(=O)c3c(C)noc3/C=C/c3ccccc3F)CC2)c2cc(C)ccc2O1 (stereo not given) -26.1%
COCCN1CCN(Cc2ccc(C(=O)NC(C)C)cc2)C(=O)C1=O 18.7%
CCCCn1c(SCC(=O)NCc2ccc(C)cc2)nc2c(sc3ccccc32)c1=O -6.21%
COc1ccc(NC(=O)c2oc3ccccc3c2NC(=O)Cc2cccs2)c(OC)c1 -7.15%
COc1ccc(CNC(=O)C(C)n2c(=O)cc(C)c3c(C)nn(-c4ccccc4)c32)cc1 (stereo not given) -21.2%
NS(=O)(=O)c1cc2c(cc1Cl)NC(C(Cl)Cl)NS2(=O)=O (stereo not given)
Cc1nc2c(c(C)nn2-c2ccccc2)c(C)c1CCC(=O)NCc1ccccc1 -12.2%
CCN1CCN(Cc2c(O)ccc3cc(-c4ccc(OC)cc4)c(=O)oc23)CC1 -19.8%
COc1ccc(C2c3cccn3CCN2S(=O)(=O)c2ccc([N+](=O)[O-])cc2)cc1 (stereo not given) 13.3%
CC(=O)c1cccc(NC(=O)c2nc(-c3ccccc3)n(-c3ccccc3C)n2)c1 -27%
COc1ccc(C)cc1Nc1nc(N)c2cc(OC)c(OC)cc2n1 -26.4%
Cc1nnc(N2CCCC(C(=O)NCCc3ccccc3)C2)c2nn(-c3ccccc3)c(C)c12 (stereo not given) -2.38%
Cc1ccc(S(=O)(=O)c2nc(-c3cccc(Cl)c3)oc2NCc2ccccc2)cc1 -29.3%
CN(C)CCNC(=O)c1ccc2c(c1)N(Cc1c(F)cccc1Cl)C(=O)c1ccccc1S2 -29.8%
CCOC(=O)Cn1c(=O)oc2cc(S(=O)(=O)N3CCN(c4cc(C)ccc4C)CC3)ccc21 -8.5%
CCOC(=O)c1c(NC(=O)c2ccc(C)c(C)c2)sc2c1CCCCC2 -7.11%
Cn1cnc(S(=O)(=O)N2CCCC(C(=O)Nc3ccc(OC(F)(F)F)cc3)C2)c1 (stereo not given) -27.3%
CCc1ccc(C(=O)NC2=NC(c3ccccc3F)CC(=O)N2)cc1 (stereo not given) -10.9%
CCC(=O)N1CCc2cc(S(=O)(=O)NC(C(=O)Nc3cc(OC)cc(OC)c3)C(C)C)ccc21 (stereo not given) -4.3%
COCCCNC(=O)c1ccc2nc(CCc3ccccc3)oc2c1 14.3%
CN[C@@H]1[C@H](O)[C@H](NC)[C@H]2O[C@@]3(O)C(=O)C[C@@H](C)O[C@H]3O[C@@H]2[C@H]1O 14.3%
Cc1c(Cl)ccc2sc(N3CCN(C(=O)CS(=O)(=O)c4ccccc4)CC3)nc12 -9.27%
CCOc1ccc(CNC(=O)Cn2c(=O)c3cccn3c3ccccc32)cc1 -3.43%
Cc1ccc(OCC(=O)Nc2ccc(-c3nc4ccccc4o3)cc2)c(C)c1 21.3%
O=C(Nc1ccccc1Br)N1CCC(CN2CCCC2)CC1 -17.6%
CCn1cc2nc(SCc3cccc(C(F)(F)F)c3)n(Cc3ccc(C)cc3)c(=O)c2n1 -8.56%
Cc1cc(F)ccc1NC(=O)c1c(C)oc2c1C1=NCCN1C=N2 0.0919%
CCc1ccccc1NC(=O)CSc1nc2c(c(=O)[nH]1)CN(Cc1ccccc1OC)CC2 -18%
Cc1cc(C)c2c(N)c(C(=O)Nc3ccccc3C(F)(F)F)sc2n1 18.2%
CCC1CN(C(=O)Nc2cc(Cl)ccc2C(=O)OC)c2ccccc2S1 (stereo not given) -11.2%
COc1ccc(OC)c(NC(=O)COCc2cc(-c3ccc(F)cc3)on2)c1 -17.8%
Cc1ccc(C)c(Cn2c(=O)n(CCCC(=O)NCc3ccc4c(c3)OCO4)c(=O)c3sccc32)c1 -29.7%
CN(C(=O)c1nn(C)c2c1CS(=O)(=O)c1ccccc1-2)c1cccc(Cl)c1 -16.9%
CCC(C)c1ccc(OCC(=O)Nc2ccc(-c3nc4ncccc4o3)cc2)cc1 (stereo not given) 37.4%
CC(C)Oc1ccc(C(=O)N2CCCCC2CCN2CCCCC2)cc1 (stereo not given) 0.251%
CCOC(=O)c1sc(N2C(=O)c3oc4ccc(F)cc4c(=O)c3C2c2ccc(O)cc2)nc1C (stereo not given) -12.2%
Cc1ccc(/C=C/c2onc(C)c2S(=O)(=O)N2CCC(C(=O)N(CCC(C)C)Cc3ccco3)CC2)cc1 -9.44%
CCc1cccc(NC(=O)CCNS(=O)(=O)c2ccc3c(c2)CCN3C(C)=O)c1 -24.6%
Cc1ccc(CNC(=O)c2ccc(CS(=O)(=O)c3ccccc3C)o2)cc1 -1.8%
Cc1ccc(N2C(=O)CSC23C(=O)N(CC(=O)Nc2ccccc2F)c2ccccc23)cc1C (stereo not given) -17.8%
CN(C)c1ccc(CNC(=O)c2ccc3nc(CCc4ccccc4)oc3c2)cc1 4.57%
CCOC(=O)CSc1nc2cc3c(cc2c(=O)n1CCCCCC(=O)NCc1ccc(OC)cc1)OCO3 -15.7%
COc1ccccc1NC(=O)Cn1c(=O)n(-c2ccc(C)cc2)c(=O)c2c1cnn2C -6.64%
CCOc1ccc(NC(=O)c2oc3ccccc3c2NC(=O)c2cc3ccccc3o2)cc1 20.7%
COc1ccc(-n2nc(C(=O)Nc3cccc(Cl)c3)c3c4ccccc4n(C)c3c2=O)cc1Cl -2.4%
CC(C)(C)c1ccc(-c2nnc(-c3ccccc3NC(=O)c3ccc(F)cc3F)o2)cc1 -13.2%
O=C(CSc1oc(-c2ccco2)nc1S(=O)(=O)c1ccc(Cl)cc1)Nc1ccc(F)cc1 -17.8%

Source: PubChem BioAssay AID1508623 (National Center for Advancing Translational Sciences (NCATS), 2021)
